Reference: the antibiotic and cytotoxicity screens of Wong et al. (2023)
The list shows a part of the results.

Tests used:
HSkMC = human skeletal muscle cells; experiment: cytotoxicity call (relative viability < 0.9); settings: 10 µM
HepG2 = experiment: cytotoxicity call (relative viability < 0.9); settings: 10 µM
S. aureus RN4220 = experiment: growth inhibition call (relative growth <= 0.2); settings: 50 µM

COc1ccc(NC(=O)Nc2ccc3c(c2)C(=O)N([C@@H](C)CO)C[C@@H](C)[C@H](CN(C)C(=O)Nc2c(C)noc2C)OCCCC[C@H](C)O3)cc1
inactive: cytotoxicity call (HSkMC) | cytotoxicity call (HepG2) | growth inhibition call (S. aureus RN4220)

C[C@@H]1CN([C@H](C)CO)C(=O)c2cc(NC(=O)C3CCCCC3)ccc2O[C@@H](C)CCCCO[C@@H]1CN(C)S(=O)(=O)c1cccs1
inactive: cytotoxicity call (HSkMC) | cytotoxicity call (HepG2) | growth inhibition call (S. aureus RN4220)

C[C@@H]1CN([C@H](C)CO)C(=O)c2cccc(NC(=O)c3ccc(-c4nccs4)cc3)c2O[C@H]1CN(C)Cc1ccc(-c2ccccc2)cc1
inactive: cytotoxicity call (HSkMC) | cytotoxicity call (HepG2) | growth inhibition call (S. aureus RN4220)

C[C@H](CO)N1C[C@H](C)[C@@H](CN(C)Cc2cccc(C(=O)O)c2)OCc2ccccc2-c2c(n(C)c3ccccc23)C1=O
inactive: cytotoxicity call (HSkMC) | cytotoxicity call (HepG2) | growth inhibition call (S. aureus RN4220)

CC1CC2C3CC(F)C4=CC(=O)C=CC4(C)C3(F)C(O)CC2(C)C1(O)C(=O)COC(=O)C(C)(C)C (centres undefined)
inactive: cytotoxicity call (HSkMC) | cytotoxicity call (HepG2) | growth inhibition call (S. aureus RN4220)

COc1ccc(CN(C)C[C@@H]2OCCCC[C@@H](C)Oc3ccc(NC(=O)Nc4cccc5ccccc45)cc3C(=O)N([C@H](C)CO)C[C@@H]2C)cc1
inactive: cytotoxicity call (HSkMC) | cytotoxicity call (HepG2) | growth inhibition call (S. aureus RN4220)

COc1ccc(C#Cc2ccc3c(c2)[C@]2(C(=O)N3)[C@H](c3ccc(O)cc3)N3[C@H](c4ccccc4)[C@H](c4ccccc4)OC(=O)[C@H]3[C@@H]2C(=O)N2CCN(c3ncccn3)CC2)cc1
inactive: cytotoxicity call (HSkMC) | cytotoxicity call (HepG2) | growth inhibition call (S. aureus RN4220)

C[C@@H]1CCCCO[C@@H](CN(C)C(=O)Nc2ccccc2)[C@@H](C)CN([C@@H](C)CO)C(=O)c2cc(NC(=O)C3CCCCC3)ccc2O1
inactive: cytotoxicity call (HSkMC) | cytotoxicity call (HepG2) | growth inhibition call (S. aureus RN4220)
